The values that follow come from ChEMBL document CHEMBL4888484, “Replenishing the malaria drug discovery pipeline: Screening and hit evaluation of the MMV Hit Generation Library 1 (HGL1) against asexual blood stage Plasmodium falciparum ,using a nano luciferase reporter read-out” (2022).

The whole screen tested about 150,000 compounds, of which about 540 (0.36%) showed an effect of 50% or more. Some of the results follow.

The subject of the assay is Plasmodium falciparum. As to the kind of experiment: Primary screen in NF54 nanoGlo assay, in single point, at 2uM, 72h; a lower Z score goes with more inhibition. The class given is functional, Erythrocyte. The settings on record: timepoint 72 hour.
As for `CCn1ncc2c1CCC[C@@H]2NCc1cnc2c(C)cccn12`, the “% Inhibition” value is recorded as -7% and the Z score is given as 0.81.

On to `Cn1ccc(C2CCN(C(=O)Nc3nsc4ccccc34)CC2)n1`, for which the “% Inhibition” value is recorded as -3% and the Z score is 0.35.

For `CCc1nnc(N[C@H]2CCN(C)C[C@H]2Cc2ccccc2)o1`, the “% Inhibition” value was -6% and the Z score worked out at 0.85.

For the compound `CC1CCN(c2nnc(C(=O)N3CCCC3)n2Cc2ccco2)CC1`, the “% Inhibition” value is reported as -7% and the Z score was 1.4.

Take `c1ccc(C2CCN(CCOC3CCCCO3)C2)nc1` (stereo not drawn): the “% Inhibition” value is listed as -2% and the Z score is reported as 0.21.

For the compound `Clc1ccc(COc2ccc(Br)cc2CNc2ccc(-c3nc4ccccc4o3)cc2)c(Cl)c1`, the “% Inhibition” value is on record as -39% and the Z score is on record as 4.57.

Regarding `CC(=O)NCCNC(=O)[C@H]1CC[C@H](C(C)C)CC1`, the “% Inhibition” value is recorded as -16% and the Z score is 1.51.

Consider `CN(Cc1cc[nH]n1)C(=O)c1ccc(S(=O)(=O)N2CCNCC2)cc1`, for which the “% Inhibition” value was -5% and the Z score came to 0.99.

As for `Cc1n[nH]c(C)c1Cc1ncnn1Cc1ccccc1`, the “% Inhibition” value is 2% and the Z score was -0.37.

For `O=C(Nc1ccc2ccccc2c1)C1=C(c2ccccc2)S(=O)(=O)CCO1`, the “% Inhibition” value was found to be 4% and the Z score was -0.52.

In the case of `O=C(NC1CCCCCC1)c1nc(-c2ccncc2)cs1`, the “% Inhibition” value was -8% and the Z score is 1.37.

As for `CC(C)CN1CCCn2nc(CNC(=O)C3=NN(C)C(=O)CC3)cc2C1`, the “% Inhibition” value is given as 1% and the Z score is -0.24.

As for `COc1ccccc1NC(=O)C1CC=CCC1C(=O)N(c1ccccc1)c1ccccc1` (stereo not drawn), the “% Inhibition” value is given as -9% and the Z score worked out at 1.83.

For the compound `Cc1cccc(N2CCN(C(=O)c3c[nH]c4cccnc34)CC2)c1C`, the “% Inhibition” value is recorded as -2% and the Z score worked out at 0.36.

With `COCCN(c1ccncc1)S(=O)(=O)c1ccc(Cl)s1`, the “% Inhibition” value is reported as -3% and the Z score was found to be 0.3.

As to `Cc1cccc(OCC(=O)N2CCC(CN3C[C@@H](C(=O)N4CCOCC4)CC3=O)CC2)c1`, the “% Inhibition” value is -5% and the Z score was found to be 0.85.

`O=S(=O)(N[C@H]1CCc2nc(-c3ccccc3)ncc2C1)c1ccc2ccccc2c1`: the “% Inhibition” value stood at 12% and the Z score is recorded as -1.55.

As for `O=S(=O)(NCCc1nc(C2CC2)no1)c1cn[nH]c1`, the “% Inhibition” value is -15% and the Z score is given as 2.1.

For `C[C@@H]1Oc2ccc(Cl)cc2CN(c2cc(F)cc(F)c2)C1=O`, the “% Inhibition” value is reported as 5% and the Z score is given as -0.9.

Regarding `COc1ccc(-n2ncc3c(NC4CCC(NC(=O)c5ccco5)CC4)nc(C)nc32)cc1` (stereo not drawn), the “% Inhibition” value is given as -8% and the Z score stood at 1.4.

For `O=C(O)c1ccc(CN2C[C@@H]3OCC(=O)N(Cc4ccccc4)[C@@H]3C2)cc1`, the “% Inhibition” value is 35% and the Z score was -3.96.

On to `Cc1cnccc1NC(=O)N[C@@H]1CCC[C@@H]1Oc1cnn(C)c1`, for which the “% Inhibition” value is given as -1% and the Z score is given as 0.18.

As to `CCN1C[C@H](Nc2ncccc2C#N)[C@@H](OC)C1`, the “% Inhibition” value is reported as -13% and the Z score was 1.15.

Regarding `Cc1ccoc1C(=O)N1CCC[C@H]1c1ccc2c(c1)OCCO2`, the “% Inhibition” value was -11% and the Z score amounted to 1.14.

Consider `O=C(NCc1ccnc(-c2cccs2)c1)c1cccs1`, for which the “% Inhibition” value was -1% and the Z score is 0.16.

In the case of `O[C@@H]1CCC(Nc2nc3cccc(F)c3o2)C[C@@H]1O` (stereo partly drawn), the “% Inhibition” value is -4% and the Z score turned out to be 0.81.

`COCc1ncc(CN2CC[C@@]3(CCCN(C4CCCC4)C3=O)C2)cn1`: the “% Inhibition” value came out at 2% and the Z score is on record as -0.41.

As for `Cc1cc(=O)c(C(=O)OC2CCCCCCC2)c[nH]1`, the “% Inhibition” value is on record as -2% and the Z score stood at 0.41.

As for `CN(CC1CCCCO1)C(=O)CCC1(Cc2ccc3ccccc3c2)CCC(=O)N1` (stereo not drawn), the “% Inhibition” value stood at 5% and the Z score is -0.73.

Regarding `Cc1cc(-n2cnnc2)ncc1-c1ccoc1`, the “% Inhibition” value was -7% and the Z score came out at 1.16.

Consider `O=C(Nc1ccc2c(c1)OCCO2)N1CCCCC[C@@H]1CN1CCCC1`, for which the “% Inhibition” value is given as 3% and the Z score was -0.5.

In the case of `Cc1nnc(Cn2nnc(C(=O)NCC3(CC(C)C)CCC3)c2C)o1`, the “% Inhibition” value came out at 31% and the Z score is given as -4.51.

In the case of `CCc1ncc(CNc2ccc(C)cc2OCC(=O)N(C)C)s1`, the “% Inhibition” value is recorded as -1% and the Z score is reported as 0.08.

`CCCCC(CC)CC(=O)NCC1(O)CCOC1` (stereo not drawn): the “% Inhibition” value is recorded as -10% and the Z score is on record as 1.44.

For the compound `COc1ccc(CNC(=O)N2C[C@@H]3C[C@H](NS(=O)(=O)c4ccccc4)[C@H]2C3)cc1`, the “% Inhibition” value was 35% and the Z score is reported as -3.96.

As to `CC(=O)Nc1sc(NC(=O)COc2ccccc2C)nc1-c1cccs1`, the “% Inhibition” value is -12% and the Z score came to 1.44.

Consider `CC(=O)N(Cc1ccc(F)cc1)CC1CN(Cc2sccc2C)CC1c1ccc(C)cc1` (stereo not drawn), for which the “% Inhibition” value is listed as -3% and the Z score was found to be 0.26.

For `CCCc1cnc(C)nc1N1CCC(NCCN2CCC[C@H](CO)C2)CC1`, the “% Inhibition” value is listed as 4% and the Z score is listed as -0.68.

For the compound `CNc1cc(-c2ccc(C(=O)N3CCS(=O)(=O)CC3)cc2)nc(N)n1`, the “% Inhibition” value was -3% and the Z score came out at 0.47.

On to `Clc1ccc2c(c1)CC[C@@H]2NCCc1nnc2n1CCC2`, for which the “% Inhibition” value is recorded as -3% and the Z score is given as 0.45.

On to `CC[C@]1(CO)CCCN(c2cc3nncn3c(N)n2)C1`, for which the “% Inhibition” value was -5% and the Z score was 0.9.

On to `Cc1c[nH]c(=O)n1-c1cccc(NC(=O)N2CC3CC=CCC3C2)c1` (stereo not drawn), for which the “% Inhibition” value is -10% and the Z score was determined as 1.57.

Take `Cc1noc(C)c1NC(=O)c1cccc(S(=O)(=O)N2CC3CC4CC3C2C4O)c1` (stereo not drawn): the “% Inhibition” value is reported as -9% and the Z score came to 1.02.

With `Cc1noc(CN(C)C2CCCCCC2)n1`, the “% Inhibition” value is given as -12% and the Z score is 2.17.

Turning to `CC1CC(C)n2nccc2N1C(=O)COCC1CCCO1` (stereo not drawn), the “% Inhibition” value is recorded as 7% and the Z score was -0.64.

Turning to `COc1cccc(CN2CCn3nc(C(=O)Nc4ccc5c(c4)CCC5)cc3C2=O)c1`, the “% Inhibition” value is reported as -18% and the Z score is given as 2.07.

Regarding `CC1(C)[C@H]2CC=C(CCNC(=O)c3cc(O)no3)[C@@H]1C2`, the “% Inhibition” value is reported as -5% and the Z score is on record as 0.78.

For the compound `CCN1CC(=O)N[C@H]2CN(C(=O)COCCOC)CC[C@@H]2OCc2cccc(c2)Oc2cccc(c2)CC1=O`, the “% Inhibition” value is given as -17% and the Z score was 2.14.

For the compound `CCOc1cncc(CNc2ccc(CO)cn2)c1`, the “% Inhibition” value is on record as 2% and the Z score was -0.24.

In the case of `O=C(Nc1ncc(Cc2ccccc2)s1)c1ccncc1`, the “% Inhibition” value was determined as 1% and the Z score is -0.23.

For `O=C(Cn1cccn1)N[C@]1(CO)COc2ccccc2C1`, the “% Inhibition” value is reported as -13% and the Z score is on record as 1.94.

Take `CC(C)(C)C1CC(N[C@H]2CCS(=O)(=O)C2)C1` (stereo partly drawn): the “% Inhibition” value is reported as -10% and the Z score was found to be 1.44.

On to `O=C1N[C@@H](c2cccc(OCc3ccccc3)c2)Nc2c1sc(=S)n2-c1ccccc1`, for which the “% Inhibition” value is given as -12% and the Z score was 1.31.

Turning to `CC[C@H]1c2cccn2CCN1C(=O)c1cc[nH]n1`, the “% Inhibition” value was -13% and the Z score is 2.45.
